The values below come from the RNAGym collection of RNA variant scans (doi:10.7554/elife.90254).

Sequences and labels used below:
B1: LINE1-mini (parent)
chain: GGCAGAGCUCAACACAGCGUGGCAAAGUGGCUGUGGCUAGACUGCC

The source gives no read counts; variants with many changes may rest on few reads.

The variants in the data set derive from B1. Nature of the data set: self-cleavage, relative activity (ratio to wild type); higher = more cleavage; in vitro, sequencing; the parent is a self-cleaving ribozyme.
G2U A11U C31A G44U: the self-cleavage worked out at 0.01.
Take G2U C10U A12C: the self-cleavage came out at 0.01.
Under G2U C3A U9C A11U G29U stands 0.03.
The result for G2U A6U A11C A12U C23U reads 0.01.
The result for G2U C3A G19A C23A reads 0.17; that for G2U A4C A12U G27U U38A, 0.03.
Take G2U C3A G22U: the self-cleavage was 0.46.
For the variant G2U A11C C45A, the self-cleavage was determined as 0.01.
The result for G2U A14C A39U reads 0.03.
The result for G2U C8G G19A G44A reads 0.01.
Turning to G2U A6C G36U A39G G40U, the self-cleavage worked out at 0.03.
For G2U A11U G17U A26C G36U U38G, the self-cleavage was determined as 0.02.
As for G2U A12C G30U U34C, the self-cleavage was found to be 0.03.
Turning to G2U A24C G29C U32G G44U, the self-cleavage came to 0.01.
The result for G2U A14G G27A U28C G29U reads 0.03; that for G2C U38G G40U C42A, 0.13; that for G2U A24U A25C U34G G35U G44A, 0.02.
For G2U A14C G30C G36U, the self-cleavage stood at 0.01.
The result for G2U A12C C13A reads 0; that for G2U A11G G30C C31G, 0; that for G2U A6G C15A A25C, 0.01.
Turning to G2U A14U C15U U32A, the self-cleavage came to 0.02.
With G2U C10A U20G A39G, the self-cleavage turned out to be 0.
Take G2U A6U C13U A26C U34G: the self-cleavage turned out to be 0.33.
Consider G2U C8G C13U G17A, for which the self-cleavage amounted to 0.03.
Under G2U A12U C15G stands 0.03; under G2U C3U A12U G22U, 0.1; under G2U C10A C42G, 0.
Under G2U C3A A25U stands 0.08.
Under G2U C8U G35A stands 0.26; under G2U C10A A26U U28G C37A, 0.01; under G2U C3U C23G U38C A39C G44U, 0.07.
Regarding G2U A4G G5A U9A C13A C15U, the self-cleavage came out at 0.03.
The result for G2U C3U A4C C8U A12G G21C G22C reads 0.01; that for G2U A11G G19A, 0; that for G2U A26G U28A G33A C45U, 0.1.
For the variant G2U C3A G29C A39G, the self-cleavage came to 0.07.
Under G2U C10U A14C C42A stands 0.02.
In the case of G2U A6G G17U G21A U38A C45U, the self-cleavage was found to be 0.01.
The result for G2U A4U G22A reads 0.08; that for G2U A16C C18A C46U, 0.01.
Under G2U A4G G29C stands 0.04; under G2U A6U G7C A24C C42U, 0.05.
Under G2U A24U G40A G44U stands 0.02; under G2U A4G C23A G35U C37U A41U C46U, 0.01; under G2U A16U C18U C31G, 0.01.
On to G2U A4G C8G A12C A16C, for which the self-cleavage stood at 0.01.
Under G2U A12G G40A stands 0.02; under G2U A11C G22C A24C, 0.
Turning to G2U A14C U32A, the self-cleavage is 0.01.
For the variant G2U C8G G21U G27U, the self-cleavage is 0.02.
Under G2U A11C G35U stands 0.01.
The result for G2U C10A A14G C18A reads 0.01.
On to G2U C3U G19C G21U C37A A39G, for which the self-cleavage was found to be 0.01.
As to G2U A24G C46U, the self-cleavage stood at 0.07.
The result for G2U A24G A39U reads 0; that for G2U A25U G27U G33U A39G C46A, 0.01; that for G2U A12C A14C G30U, 0.02.
In the case of G2U A11U C23U U28G C37U, the self-cleavage was determined as 0.01.
The result for G2U A4C C31G A41C reads 0.05; that for G2U A14U G27U G40A, 0.02.
Under G2U C10A G27C G29C stands 0.01.
The result for G2U A14G U43A reads 0.05; that for G2U A14U C15A, 0.31.
Regarding G2C U34G C45A, the self-cleavage was determined as 0.1.
The result for G2U A14C G27U U32C G44A reads 0.01; that for G2U C10U G22C G33A G36A, 0.01; that for G2U A16U A26U U28A U32A G44C, 0.07.
The result for G2U C10U C13A U34G C37A C45G reads 0.01.
Regarding G2U A4U A16C G27A U43A, the self-cleavage was found to be 0.03.
Consider G2U C3G C13G C45A, for which the self-cleavage was found to be 0.02.
The result for G2U C8A C45U reads 0.21; that for G2U A11U A24G, 0.02.
Under G2U A26G G27U stands 0.02; under G2U C3A C42U, 0.07; under G2U C8A U9C, 0.01.
The result for G2U A6G G17U U28A G30U G33A G40A reads 0; that for G2C U38G A39U, 0.1.
Take G2U A26G C46U: the self-cleavage amounted to 0.09.
Under G2U A4U A6C C45A stands 0.01; under G2U A6G C46U, 0.03; under G2C U34C U38C G40C A41G U43A, 0.14.
In the case of G2U A6C A25G, the self-cleavage turned out to be 0.01.
Under G2U A11G A39G stands 0.01; under G2U A6C G17A C37A, 0.02.
Under G2U A11U A24U A25G G36U U38G C42A stands 0.
The result for G2U C3U A14C C46G reads 0.03; that for G2U A25C G27A, 0.04.
For the variant G2U A4C U32A, the self-cleavage is 0.11.
Under G2U A6G U28C C31G stands 0.02.
Under G2U A6U U20A A41C stands 0.04.
Under G2U C10U G30A C46A stands 0.01; under G2U A4C U9G A14G C15A G36A, 0.02.
For the variant G2U C3G C8A A39G C45A, the self-cleavage stood at 0.09.
The result for G2U C8U G29A A41U U43A reads 0.02; that for G2U A14G C18A G22U, 0.01; that for G2U A12C A14U A16G A39G C45A, 0.01.
The result for G2U A16C G29A C42U reads 0.07.
As to G2U A24U G35C, the self-cleavage came to 0.06.
Under G2U A6C G27C stands 0.03; under G2U A4U A24U G40C, 0.09; under G2U A4C A16C G33C, 0.03.
The result for G2U C8A G30C C37A U38A C46U reads 0.23; that for G2U A6U A12U C23G C45A, 0.03; that for G2U A4U C8G G27U, 0.18.
In the case of G2U C3A C10A, the self-cleavage amounted to 0.03.
The result for G2U C8G C23A reads 0.01.
Under G2U A11G G21C stands 0.01.
Under G2U A6U G17C stands 0.05; under G2U A6U G17U U28G U32A, 0.01.
In the case of G2U C3G A16C C45G, the self-cleavage turned out to be 0.08.
With G2U C3A U28G, the self-cleavage is 0.04.
The result for G2U A14C C15U reads 0.
Regarding G2U A11C A26U G40A A41G U43G, the self-cleavage came out at 0.01.
Under G2U C8A G17A stands 0.05; under G2U A11U G29A U38G, 0.01; under G2U A16U G19U U32G, 0.03.
Turning to G2U A25G C31A, the self-cleavage was 0.02.
The result for G2U A25U C31U A39G reads 0.01.
The result for G2U C3A C13U U34G C37A U43C reads 0.07; that for G2U A4C A11U G33C, 0.05.
For G2U C10A G29C, the self-cleavage is 0.01.
As for G2U A4G G27A U28G G30A G44A, the self-cleavage was found to be 0.11.
On to G2U A14U U38G C42A U43A, for which the self-cleavage came out at 0.02.
With G2U C8A A14C G27U, the self-cleavage came to 0.03.
The result for G2U C3G G21A U28A G36C A41C reads 0.14; that for G2U A6G C8A G36A, 0.24; that for G2U C3G U9A A25U G27A A41U, 0.22.
The result for G2U A16U U20G U28G U38A reads 0.01.
Under G2U A24C A41G stands 0.01.
G2U A4U C10A A12C U20A G21U C37A: the self-cleavage worked out at 0.
Under G2U C10A U20C stands 0.11; under G2U A11G A26C G44A, 0.02.
Regarding G2U C10U A11U G33U G40U, the self-cleavage was found to be 0.03.
The result for G2U A4C A11G C23A C37A reads 0.02.
In the case of G2U C8G A11C G33C G35A, the self-cleavage was 0.
Under G2U C10A C18A G21U G35U stands 0.02; under G2U C10G G21C G33U A39G, 0.01.
In the case of G2U C10A G22U C31G, the self-cleavage was 0.02.
Under G2U A11C G21A C23U G30U stands 0.03; under G2C U43A C45A, 0.13.
The result for G2U A24G G29C reads 0.03.
Under G2U C10A U28C C42G stands 0.01; under G2U C3G A6U C13G C18U G27A C42A G44U, 0.11.
As for G2U A6U G17C A41U, the self-cleavage is 0.21.
As for G2U C3A G35A, the self-cleavage is 0.08.
As for G2U C3A A14U, the self-cleavage worked out at 0.16.
The result for G2U C3G C8G U34G reads 0.24.
The result for G2U C3A G21U G30U C46A reads 0.08; that for G2U A14C A24G U32A U38C C46U, 0.01; that for G2U C10U A14U U20A, 0.02.
Consider G2U A11U U38A, for which the self-cleavage is 0.01.
Under G2U A11U U38C stands 0; under G2U A14G G19A G29C, 0.32.
Consider G2U A6U U9C A39U, for which the self-cleavage was found to be 0.01.
On to G2U A24C G44U, for which the self-cleavage is 0.03.
Under G2U C3A C8U C31A stands 1.37; under G2U A16C G21A G29C C37A, 0.03.
The result for G2U A6U U28A C46U reads 0.31.
The result for G2U C10A G30U G40A A41C reads 0.
Regarding G2U C8A U9A A39U C45A, the self-cleavage amounted to 0.03.
The result for G2U C3A G7U C10A G17U A25C reads 0.05; that for G2U A6G C10U G27A U32A A39C, 0.
With G2C U43A C46U, the self-cleavage amounted to 0.02.
The result for G2U C3A A11C U20A G40A reads 0.07; that for G2U C10G G30U A39G, 0.01.
Take G2U A4G A14C G40U: the self-cleavage was determined as 0.02.
